Assay results published in PubChem BioAssay AID1347073 (National Center for Advancing Translational Sciences (NCATS), 2019).
Out of some 45,000 compounds screened, about 200 (0.44%) were called active. Another 7% or so got no clear call; they are omitted. The call rests on the fitted dose curve; in most records, active means well fitted activation curve with a large enough effect; inconclusive means small, poorly fitted or top-dose-only effect; inactive means no such curve, though single readings can be large or run the other way. This is one part of the list.

Experiment: qHTS of TDP-43 Inhibitors: NCGC Sytravon Library Screen; further: 0% is about no effect; nearly all actives have a fitted effect of over 55% in size
Settings: yeast TDP-43 toxicity rescue, BacTiter-Glo growth, 24 h; series mostly up to 46.1 µM; growth rescue (activation): at the top concentration
Summary of the method: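 TDP-43-expressing yeast, pregrown in raffinose, seeded at OD600 0.02 in galactose medium with compound for 24 hr at 30 deg C. Growth read by BacTiter-Glo luminescence, so rescue of toxicity appears as activation.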

Row | SMILES | growth rescue (activation)
1 | CCOC(=O)c1c(C)[nH]c(C(=O)N2CCCC(C(=O)c3ccccc3OC)C2)c1C (stereo not drawn) | inactive: 32.6%
2 | COc1ccccc1C1CC(c2cccs2)=NN1C(=O)CCC(=O)O (stereo not drawn) | inactive: 2.85%
3 | Cc1ccc(NS(=O)(=O)c2ccc(OCC(N)=O)cc2)cc1 | inactive: 11.5%
4 | CC1CC(C)CN(C(=O)CNC(=O)Cn2ccc3ccccc3c2=O)C1 (stereo not drawn) | inactive: 1.28%
5 | CCOC(=O)N1CCN(C(=O)CN2C(=O)c3ccccc3S2(=O)=O)CC1 | inactive: -5.44%
6 | O=C(NNC1CC(=O)N(c2ccc(Cl)cc2)C1=O)c1ccco1 (stereo not drawn) | inactive: 18.8%
7 | CC(C)n1nnnc1SCC(=O)Nc1cccc(F)c1 | inactive: 6.53%
8 | CCOc1ccc(CCNC(=O)C2=C(C)C(=O)OC23CCCCC3)cc1 | inactive: 5.27%
9 | O=C(NNC(=S)Nc1ccc(Br)cc1)c1cccnc1 | inactive: 0.0712%
10 | O=C(CN1C(=O)/C(=C\c2ccccc2F)SC1=S)Nc1nc2ccccc2s1 | inactive: -1.68%
11 | C=C(C)CNC(=O)CCc1nnc(Cc2cccc(C(F)(F)F)c2)o1 | inactive: 8.46%
12 | COC(=O)COc1ccc(S(=O)(=O)N2CCN(c3ccccc3)CC2)cc1 | inactive: 9.29%
13 | CCOc1ccc(/C=N/NC(=O)CC(=O)Nc2ccc(Cl)c(Cl)c2)cc1 | inactive: 8.65%
14 | Cc1ccc(NC(=O)c2ccc(OC(F)F)cc2)cc1S(=O)(=O)N(C)C | inactive: 2.58%
15 | CSc1ccccc1OCc1cc(C(=O)NC2CCOC(C)(C)C2)no1 (stereo not drawn) | inactive: 6.28%
16 | COc1cc(C2CC(=O)Oc3c2c(=O)n(C)c2ccccc32)ccc1O (stereo not drawn) | inactive: -2.72%
17 | COC(=O)c1c(NC(=O)CSc2nc3nc(C)cc(C)n3n2)sc(C)c1C | inactive: -10.1%
18 | O=C(NCc1ccccc1Cl)c1csc([C@@H]2O[C@H](CO)[C@H](O)[C@H](O)[C@H]2O)n1 | inactive: -1.81%
19 | CN(Cc1nccn1C)C(=O)CC1C(=O)NCCN1Cc1ccccc1C(F)(F)F (stereo not drawn) | inactive: 8.59%
20 | COc1ccc(C(O)c2nc(-c3cccc(CO)c3)cs2)cc1 (stereo not drawn) | inactive: 7.02%
21 | COCc1c(C(=O)OCC(=O)c2ccc[nH]2)oc2ccccc12 | inactive: 5.15%
22 | O=C(Nc1ccccc1OC(F)F)c1ccc(S(=O)(=O)N2CCOCC2)cc1 | inactive: 13%
23 | COc1cc(/C=C(\C#N)c2nc3ccccc3[nH]2)cc(OC)c1O | inactive: 17.8%
24 | Cc1cc(NC(=O)CSc2ccccn2)no1 | inactive: 3.79%
25 | O=C(NCc1ccco1)/C(=C/c1ccco1)NC(=O)c1ccco1 | inactive: -5.42%
26 | CC(C)CC1NC(=O)N(CC(=O)Nc2ccc3c(c2)CCC3)C1=O (stereo not drawn) | inactive: -1.48%
27 | CCN(CC(=O)NCc1ccc(F)cc1)C(=O)/C=C/c1cc(OC)ccc1OC | inactive: 12.2%

Row | SMILES | growth rescue (activation)
28 | COc1ccc(Br)c(C(=O)NCC2CCCCC2)c1 | inactive: 24%
29 | Cc1ccc(SCC(=O)NC2CCS(=O)(=O)C2)cc1 (stereo not drawn) | inactive: -5.08%
30 | COc1cc(-c2cc(C(=O)NCCc3ccc(S(N)(=O)=O)cc3)c3ccccc3n2)cc(OC)c1OC | inactive: -6.68%
31 | CSc1nc(-c2ccco2)nn1C(=O)c1cccs1 | inactive: 17.5%
32 | NS(=O)(=O)c1ccc(CCNC(=O)CSc2cccs2)cc1 | inactive: -3.24%
33 | CC(=O)c1ccc(NC(=O)COC(=O)/C=C/c2cccs2)cc1 | inactive: 43.6%
34 | Cc1ccc(/C=N/Nc2cccc(C(=O)O)c2)s1 | inactive: 16%
35 | COC(=O)Cn1cc(/C=N/NC(=O)COc2cccc3cccnc23)c2ccccc21 | inactive: 22.3%
36 | NS(=O)(=O)c1ccc(CCNC(=O)CSc2nc3ccccc3c3nc(CCN4CCCCC4)nn23)cc1 | inactive: -1.47%
37 | COCCNc1nnc(Cc2ccc(OC)c(OC)c2)c(=O)[nH]1 | inactive: -7%
38 | Cc1ccc(C(=O)OCC(=O)N(C)c2ccccc2)cc1C | inactive: -10.8%
39 | CCOC(=O)CC1C(=O)NCCN1C(=O)c1ccc(F)cc1F (stereo not drawn) | inactive: 16.5%
40 | CCCn1ncc(CN2CCN(Cc3ccc(C)o3)C(CCO)C2)c1C (stereo not drawn) | inactive: 18.9%
41 | Cc1ccccc1CC1(CO)CCCN(Cc2cn[nH]c2-c2ccccc2)C1 (stereo not drawn) | inactive: 5.74%
42 | CC12CN(C(=S)Nc3ccccc3)CC(C)(CN(C(=S)Nc3ccccc3)C1)C2=O | inactive: 13.7%
43 | O=C(NCc1ccc(Cl)cc1)c1cc(=O)[nH]c2ccc(S(=O)(=O)N3CCOCC3)cc12 | inactive: 19%
44 | O=C(O)c1ccc(Cl)c(NCc2cccnc2)c1 | inactive: -1.11%
45 | Cc1cccn2c(=O)c3cc(S(=O)(=O)c4ccc(F)cc4)c(=N)n(Cc4ccco4)c3nc12 | inactive: -0.041%
46 | Cc1nnc(SCC(=O)NCc2ccc3c(c2)OCO3)n1C | inactive: -0.0686%
47 | CC(=O)c1cccc(NC(=O)c2ccc(NC(=O)CCS(=O)(=O)c3cccs3)cc2)c1 | inactive: 5.07%
48 | CCN(CC)S(=O)(=O)c1ccc(NC(=O)COC(=O)c2cnc(C)cn2)cc1 | inactive: 3.03%
49 | C=CCN(CC(=O)NC1CCS(=O)(=O)C1)S(=O)(=O)c1ccccc1C(F)(F)F (stereo not drawn) | inactive: 4.87%
50 | Fc1cccc(COc2ccccc2CNc2ccccc2)c1 | inactive: 25.2%
51 | N#C/C(=C(/O)c1ccco1)c1nc2ccccc2[nH]1 | inactive: 2.86%
52 | CC(C)(C)OC(=O)NCCC(=O)N/N=C/c1cccc2cccnc12 | inactive: 0.836%
53 | O=C(/C=C/c1cccc(F)c1)N1CCN(c2ccccn2)CC1 | inactive: 3.7%
